Patent publication US8304419B2, “Chemical compounds” (priority 2007, dated 2012)
Where a name gives a salt, the structure may show the parent alone.

Key:
Assay in all cases: microbe, parasite or virus in culture
HIV-1 Y181C RT mutant = details: Human immunodeficiency virus 1, HeLa, read-out: Y181C activity level, HeLa-CD4-LTR-β-gal cells, Y181C virus
HIV-1 K103N RT mutant = details: Human immunodeficiency virus 1, HeLa, read-out: K103N activity level, HeLa-CD4-LTR-β-gal cells, K103N virus
HIV-1 V106A RT mutant = details: Human immunodeficiency virus 1, HeLa, read-out: V106A activity level, HeLa-CD4-LTR-β-gal cells, V106A virus

Row | SMILES | IC50 (HIV-1 Y181C RT mutant) [nM] | IC50 (HIV-1 K103N RT mutant) [nM] | IC50 (HIV-1 V106A RT mutant) [nM]
1 | CS(=O)(=O)c1ccc(C(=O)NCc2ccc(Cl)c(Oc3cc(Cl)cc(C#N)c3)c2F)cc1 [Example 92, N-({4-chloro-3-[(3-chloro-5-cyanophenyl)oxy]-2-fluorophenyl}methyl)-4-(methylsulfonyl)benzamide] | 10 to 1000 | 10 to 1000 | 10 to 1000
2 | N#Cc1cc(Cl)cc(Oc2c(Cl)ccc(CNC(=O)c3ccno3)c2F)c1 [Example 93, N-({4-chloro-3-[(3-chloro-5-cyanophenyl)oxy]-2-fluorophenyl}methyl)-5-isoxazolecarboxamide] | 10 to 1000 | 10 to 1000 | 10 to 1000
3 | N#Cc1cc(Cl)cc(Oc2c(Cl)ccc(CNC(=O)c3cccnc3)c2F)c1 [Example 94, N-({4-chloro-3-[(3-chloro-5-cyanophenyl)oxy]-2-fluorophenyl}methyl)-3-pyridinecarboxamide trifluoroacetate] | 10 to 1000 | 10 to 1000 | > 1000
4 | N#Cc1cc(Cl)cc(Oc2c(Cl)ccc(CNC(=O)c3cc[nH]n3)c2F)c1 [Example 95, N-({4-chloro-3-[(3-chloro-5-cyanophenyl)oxy]-2-fluorophenyl}methyl)-1H-pyrazole-3-carboxamide] | 10 to 1000 | 10 to 1000 | > 1000
5 | Cc1nn(-c2ccccc2)nc1C(=O)NCc1ccc(Cl)c(Oc2cc(Cl)cc(C#N)c2)c1F [Example 96, N-({4-chloro-3-[(3-chloro-5-cyanophenyl)oxy]-2-fluorophenyl}methyl)-5-methyl-2-phenyl-2H-1,2,3-triazole-4-carboxamide trifluoroacetate] | > 1000 | > 1000 | > 1000
6 | Cc1nc2ccccn2c1C(=O)NCc1ccc(Cl)c(Oc2cc(Cl)cc(C#N)c2)c1F [Example 97, N-({4-chloro-3-[(3-chloro-5-cyanophenyl)oxy]-2-fluorophenyl}methyl)-2-methylimidazo[1,2-a]pyridine-3-carboxamide trifluoroacetate] | 10 to 1000 | 10 to 1000 | > 1000
7 | N#Cc1cc(Cl)cc(Oc2c(Cl)ccc(CNC(=O)c3csc(-c4cccnc4)n3)c2F)c1 [Example 98, N-({4-chloro-3-[(3-chloro-5-cyanophenyl)oxy]-2-fluorophenyl}methyl)-2-(3-pyridinyl)-1,3-thiazole-4-carboxamide trifluoroacetate] | 10 to 1000 | 10 to 1000 | 10 to 1000
8 | N#Cc1cc(Cl)cc(Oc2c(Cl)ccc(CNC(=O)c3snnc3-c3ccccc3)c2F)c1 [Example 99, N-({4-chloro-3-[(3-chloro-5-cyanophenyl)oxy]-2-fluorophenyl}methyl)-4-phenyl-1,2,3-thiadiazole-5-carboxamide] | > 1000 | > 1000 | > 1000
9 | N#Cc1cc(Cl)cc(Oc2c(Cl)ccc(CNC(=O)c3cn[nH]c3)c2F)c1 [Example 100, N-({4-chloro-3-[(3-chloro-5-cyanophenyl)oxy]-2-fluorophenyl}methyl)-1H-pyrazole-4-carboxamide trifluoroacetate] | 10 to 1000 | 10 to 1000 | 10 to 1000
10 | CSc1ncc(Cl)c(C(=O)NCc2ccc(Cl)c(Oc3cc(Cl)cc(C#N)c3)c2F)n1 [Example 101, 5-chloro-N-({4-chloro-3-[(3-chloro-5-cyanophenyl)oxy]-2-fluorophenyl}methyl)-2-(methylthio)-4-pyrimidinecarboxamide] | > 1000 | > 1000 | > 1000
11 | CN(C)CCCOc1ccc2[nH]c(C(=O)NCc3ccc(Cl)c(Oc4cc(Cl)cc(C#N)c4)c3F)cc2c1 [Example 102, N-({4-chloro-3-[(3-chloro-5-cyanophenyl)oxy]-2-fluorophenyl}methyl)-5-{[3-(dimethylamino)propyl]oxy}-1H-indole-2-carboxamide] | < 10 | < 10 | 10 to 1000
12 | N#Cc1cc(Cl)cc(Oc2c(Cl)ccc(CNC(=O)c3cc4cc(OCCN5CCOCC5)ccc4[nH]3)c2F)c1 [Example 103, N-({4-chloro-3-[(3-chloro-5-cyanophenyl)oxy]-2-fluorophenyl}methyl)-5-{[2-(4-morpholinyl)ethyl]oxy}-1H-indole-2-carboxamide] | < 10 | < 10 | 10 to 1000
13 | CN1CCCC1CCOc1ccc2[nH]c(C(=O)NCc3ccc(Cl)c(Oc4cc(Cl)cc(C#N)c4)c3F)cc2c1 (stereo not drawn) [Example 104, N-({4-chloro-3-[(3-chloro-5-cyanophenyl)oxy]-2-fluorophenyl}methyl)-5-{[2-(1-methyl-2-pyrrolidinyl)ethyl]oxy}-1H-indole-2-carboxamide] | < 10 | < 10 | 10 to 1000
14 | CN(C)CCOc1ccc2[nH]c(C(=O)NCc3ccc(Cl)c(Oc4cc(Cl)cc(C#N)c4)c3F)cc2c1 [Example 105, N-({4-chloro-3-[(3-chloro-5-cyanophenyl)oxy]-2-fluorophenyl}methyl)-5-{[2-(dimethylamino)ethyl]oxy}-1H-indole-2-carboxamide] | < 10 | < 10 | 10 to 1000
15 | CC(O)CCOc1ccc2[nH]c(C(=O)NCc3ccc(Cl)c(Oc4cc(Cl)cc(C#N)c4)c3F)cc2c1 (stereo not drawn) [Example 106, N-({4-chloro-3-[(3-chloro-5-cyanophenyl)oxy]-2-fluorophenyl}methyl)-5-[(3-hydroxybutyl)oxy]-1H-indole-2-carboxamide] | < 10 | < 10 | 10 to 1000
16 | N#Cc1cc(Cl)cc(Oc2c(Cl)ccc(CNC(=O)c3cc4cc(OCC[C@H](O)CO)ccc4[nH]3)c2F)c1 [Example 107, N-({4-chloro-3-[(3-chloro-5-cyanophenyl)oxy]-2-fluorophenyl}methyl)-5-{[(3S)-3,4-dihydroxybutyl]oxy}-1H-indole-2-carboxamide] | < 10 | < 10 | < 10
17 | Cc1cccc2cc(C(=O)NCc3ccc(Cl)c(Oc4cc(Cl)cc(C#N)c4)c3F)[nH]c12 [Example 108, N-({4-chloro-3-[(3-chloro-5-cyanophenyl)oxy]-2-fluorophenyl}methyl)-7-methyl-1H-indole-2-carboxamide] | 10 to 1000 | 10 to 1000 | 10 to 1000
18 | N#Cc1cc(Cl)cc(Oc2c(Cl)ccc(CNC(=O)c3cc4cc(Cl)ccc4[nH]3)c2F)c1 [Example 109, 5-chloro-N-({4-chloro-3-[(3-chloro-5-cyanophenyl)oxy]-2-fluorophenyl}methyl)-1H-indole-2-carboxamide] | 10 to 1000 | 10 to 1000 | 10 to 1000
19 | N#Cc1cc(Cl)cc(Oc2c(Cl)ccc(CNC(=O)c3cc4ccc(Cl)cc4[nH]3)c2F)c1 [Example 110, 6-chloro-N-({4-chloro-3-[(3-chloro-5-cyanophenyl)oxy]-2-fluorophenyl}methyl)-1H-indole-2-carboxamide] | 10 to 1000 | 10 to 1000 | 10 to 1000
20 | N#Cc1cc(Cl)cc(Oc2c(Cl)ccc(CNC(=O)c3cc4cc(N)ccc4[nH]3)c2F)c1 [Example 111, 5-amino-N-({4-chloro-3-[(3-chloro-5-cyanophenyl)oxy]-2-fluorophenyl}methyl)-1H-indole-2-carboxamide trifluoroacetate] | < 10 | < 10 | 10 to 1000
21 | CC(C)(C)OC(=O)Nc1cccc2cc(C(=O)NCc3ccc(Cl)c(Oc4cc(Cl)cc(C#N)c4)c3F)[nH]c12 [Example 112, 1,1-dimethylethyl (2-{[({4-chloro-3-[(3-chloro-5-cyanophenyl)oxy]-2-fluorophenyl}methyl)amino]carbonyl}-1H-indol-7-yl)carbamate] | > 1000 | 10 to 1000 | > 1000
22 | N#Cc1cc(Cl)cc(Oc2c(Cl)ccc(CNC(=O)c3cc4cccc(N)c4[nH]3)c2F)c1 [Example 113, 7-amino-N-({4-chloro-3-[(3-chloro-5-cyanophenyl)oxy]-2-fluorophenyl}methyl)-1H-indole-2-carboxamide] | 10 to 1000 | < 10 | 10 to 1000
23 | N#Cc1cc(Cl)cc(Oc2c(Cl)ccc(CNC(=O)c3cc4cc(NC(=O)c5ccncc5)ccc4[nH]3)c2F)c1 [Example 114, N-({4-chloro-3-[(3-chloro-5-cyanophenyl)oxy]-2-fluorophenyl}methyl)-5-[(4-pyridinylcarbonyl)amino]-1H-indole-2-carboxamide] | < 10 | < 10 | 10 to 1000
24 | N#Cc1cc(Cl)cc(Oc2c(Cl)ccc(CNC(=O)c3cc4cc(NC(=O)c5cccnc5)ccc4[nH]3)c2F)c1 [Example 115, N-({4-chloro-3-[(3-chloro-5-cyanophenyl)oxy]-2-fluorophenyl}methyl)-5-[(3-pyridinylcarbonyl)amino]-1H-indole-2-carboxamide] | < 10 | < 10 | 10 to 1000
25 | N#Cc1cc(Cl)cc(Oc2c(Cl)ccc(CNC(=O)c3cc4cc(NC(=O)CCN)ccc4[nH]3)c2F)c1 [Example 116, 5-(β-alanylamino)-N-({4-chloro-3-[(3-chloro-5-cyanophenyl)oxy]-2-fluorophenyl}methyl)-1H-indole-2-carboxamide] | 10 to 1000 | < 10 | 10 to 1000
26 | CC(C)(C)OC(=O)N1CCC[C@H]1C(=O)Nc1ccc2[nH]c(C(=O)NCc3ccc(Cl)c(Oc4cc(Cl)cc(C#N)c4)c3F)cc2c1 [Example 117, 1,1-dimethylethyl (2S)-2-{[(2-{[({4-chloro-3-[(3-chloro-5-cyanophenyl)oxy]-2-fluorophenyl}methyl)amino]carbonyl}-1H-indol-5-yl)amino]carbonyl}-1-pyrrolidinecarboxylate] | 10 to 1000 | 10 to 1000 | 10 to 1000
27 | N#Cc1cc(Cl)cc(Oc2c(Cl)ccc(CNC(=O)c3cc4cc(NC(=O)[C@@H]5CCCN5)ccc4[nH]3)c2F)c1 [Example 118, N-({4-chloro-3-[(3-chloro-5-cyanophenyl)oxy]-2-fluorophenyl}methyl)-5-(L-prolylamino)-1H-indole-2-carboxamide trifluoroacetate] | 10 to 1000 | < 10 | 10 to 1000
